Some of the results follow. Cut-off read from the data, not from the text of the source: active = 3.2 or more and inactive = the rest. Most of these values are background signal.
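Note: displayed peptides selected on beads carrying the immobilized SH2 domain, with library peptides lacking any tyrosine serving as negative controls.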

For the first assay, the target named is SHP2 C-SH2 domain E139D. Kind of assay: enrichment score (SH2-bound / input frequency) (ratio); bacterial display of known human phosphotyrosine sites (pTyr-Var adds point mutants) read by sequencing; higher = stronger binding; tyrosines were phosphorylated by kinases first. The note with it: peptide library: pTyr-Var.
ESMQSYDLDYP [UNC13B_Y243_D238E]: the enrichment score is inactive: 0.61.
On the same count and under the same terms, the same measure for HAVYVYDICHV [TWNK_Y508]: inactive: 1.55; for NTQRPYFKGGG [TYROBP_Y111_YF]: inactive: 0.868; for ETESPYQELQG [TYROBP_Y91]: inactive: 0.52.
Same read-out and setting: the same measure for GTQCSYLLSRK [UGT3A1_Y123]: inactive: 0.546.
On the same count and under the same terms, the same measure for HAVFIYDICHV [TWNK_Y508_V507I_YF]: inactive: 1.64; for LTTPTFGDLNH [TUBB_Y222_Y222F]: inactive: 1.13.
Consider DSMQSYDLDYP [UNC13B_Y243], for which the enrichment score was inactive: 0.339.
On the same count and under the same terms, the value for NLGQQYNSPQE [UMPS_Y432] was inactive: 0.547; that for TQRPYYKGGGG [TYROBP_Y112] was inactive: 0.771.
Same read-out and setting: the value for TVLWQYTGTRP [UGT1A1_Y337_R336Q] was inactive: 0.846.
Consider LFLASYCIGGG [UBD_Y161_C160S], for which the enrichment score is inactive: 1.42.
On the same count and under the same terms, the same measure for RGSQQYRALPV [TUBB8_Y281_T285P]: inactive: 0.973.
On the same count and under the same terms, the value for NTDETYCIDNK [TUBB3_Y200_E205K] was inactive: 0.753; that for PQQLWYTHEKK [UBTF_Y207] was inactive: 1.51.
Same read-out and setting: the value for RDIHDYIKHLG [UNC13C_Y308] was inactive: 0.889; that for TVLWLYTGTRP [UGT1A1_Y337_R336L] was inactive: 1.96.
QGIYGYHHYMQ [UFSP2_Y287]: the enrichment score was inactive: 2.23.
Still for that read-out and setting: the same measure for VVQGIYGYHHY [UFSP2_Y285]: inactive: 1.46.

A further assay concerns the target SHP2 C-SH2 domain wild-type. The assay is described as above. Particulars: peptide library: pTyr-Var.
For the molecule ESMQSYDLDYP [UNC13B_Y243_D238E], the enrichment score was inactive: 0.753.
With HAVYVYDICHV [TWNK_Y508], the enrichment score was inactive: 1.76.
On the same count and under the same terms, the value for NTQRPYFKGGG [TYROBP_Y111_YF] was inactive: 0.812; that for ETESPYQELQG [TYROBP_Y91] was inactive: 0.685.
Still for that read-out and setting: the same measure for GTQCSYLLSRK [UGT3A1_Y123]: inactive: 0.53; for HAVFIYDICHV [TWNK_Y508_V507I_YF]: inactive: 1.65; for LTTPTFGDLNH [TUBB_Y222_Y222F]: inactive: 0.969.
Still for that read-out and setting: the same measure for DSMQSYDLDYP [UNC13B_Y243]: inactive: 0.4; for NLGQQYNSPQE [UMPS_Y432]: inactive: 0.741.
Take TQRPYYKGGGG [TYROBP_Y112]: the enrichment score was inactive: 0.615.
As to TVLWQYTGTRP [UGT1A1_Y337_R336Q], the enrichment score is inactive: 0.882.
The same measure, in the same setting: the value for LFLASYCIGGG [UBD_Y161_C160S] was inactive: 1.32.
For the molecule RGSQQYRALPV [TUBB8_Y281_T285P], the enrichment score was inactive: 0.864.
On the same count and under the same terms, the same measure for NTDETYCIDNK [TUBB3_Y200_E205K]: inactive: 0.966; for PQQLWYTHEKK [UBTF_Y207]: inactive: 1.27.
Same read-out and setting: the same measure for RDIHDYIKHLG [UNC13C_Y308]: inactive: 0.847.
Still for that read-out and setting: the value for TVLWLYTGTRP [UGT1A1_Y337_R336L] was inactive: 1.45; that for QGIYGYHHYMQ [UFSP2_Y287] was inactive: 2.85; that for VVQGIYGYHHY [UFSP2_Y285] was inactive: 1.4.

The target in a further assay is SHP2 N-SH2 domain L43F. The assay is described as above. The note with it: peptide library: pTyr-Var.
For ESMQSYDLDYP [UNC13B_Y243_D238E], the enrichment score is inactive: 0.818.
Same read-out and setting: the value for HAVYVYDICHV [TWNK_Y508] was inactive: 1.08; that for NTQRPYFKGGG [TYROBP_Y111_YF] was inactive: 0.769.
On the same count and under the same terms, the value for ETESPYQELQG [TYROBP_Y91] was inactive: 0.452; that for GTQCSYLLSRK [UGT3A1_Y123] was inactive: 0.432; that for HAVFIYDICHV [TWNK_Y508_V507I_YF] was inactive: 1.37.
Still for that read-out and setting: the value for LTTPTFGDLNH [TUBB_Y222_Y222F] was inactive: 1.22; that for DSMQSYDLDYP [UNC13B_Y243] was inactive: 0.487.
NLGQQYNSPQE [UMPS_Y432]: the enrichment score is inactive: 0.621.
Still for that read-out and setting: the value for TQRPYYKGGGG [TYROBP_Y112] was inactive: 0.599; that for TVLWQYTGTRP [UGT1A1_Y337_R336Q] was inactive: 0.805; that for LFLASYCIGGG [UBD_Y161_C160S] was inactive: 0.986.
The same measure, in the same setting: the value for RGSQQYRALPV [TUBB8_Y281_T285P] was inactive: 0.817; that for NTDETYCIDNK [TUBB3_Y200_E205K] was inactive: 1.02.
On the same count and under the same terms, the same measure for PQQLWYTHEKK [UBTF_Y207]: inactive: 1.59; for RDIHDYIKHLG [UNC13C_Y308]: inactive: 0.763.
TVLWLYTGTRP [UGT1A1_Y337_R336L]: the enrichment score is inactive: 1.47.
Still for that read-out and setting: the same measure for QGIYGYHHYMQ [UFSP2_Y287]: inactive: 2; for VVQGIYGYHHY [UFSP2_Y285]: inactive: 1.14.

A further assay concerns the target SHP2 N-SH2 domain T42A. The assay is described as above. The note with it: peptide library: pTyr-Var.
As for ESMQSYDLDYP [UNC13B_Y243_D238E], the enrichment score is inactive: 0.557.
Same read-out and setting: the value for HAVYVYDICHV [TWNK_Y508] was inactive: 1.48; that for NTQRPYFKGGG [TYROBP_Y111_YF] was inactive: 0.65; that for ETESPYQELQG [TYROBP_Y91] was inactive: 0.427.
On the same count and under the same terms, the value for GTQCSYLLSRK [UGT3A1_Y123] was inactive: 0.595; that for HAVFIYDICHV [TWNK_Y508_V507I_YF] was inactive: 1.61.
As to LTTPTFGDLNH [TUBB_Y222_Y222F], the enrichment score is inactive: 0.95.
Same read-out and setting: the same measure for DSMQSYDLDYP [UNC13B_Y243]: inactive: 0.356; for NLGQQYNSPQE [UMPS_Y432]: inactive: 0.633.
Same read-out and setting: the same measure for TQRPYYKGGGG [TYROBP_Y112]: inactive: 0.74.
On the same count and under the same terms, the same measure for TVLWQYTGTRP [UGT1A1_Y337_R336Q]: inactive: 0.722.
As for LFLASYCIGGG [UBD_Y161_C160S], the enrichment score was inactive: 1.06.
Still for that read-out and setting: the same measure for RGSQQYRALPV [TUBB8_Y281_T285P]: inactive: 0.761; for NTDETYCIDNK [TUBB3_Y200_E205K]: inactive: 0.57.
Still for that read-out and setting: the value for PQQLWYTHEKK [UBTF_Y207] was inactive: 1.27; that for RDIHDYIKHLG [UNC13C_Y308] was inactive: 0.806; that for TVLWLYTGTRP [UGT1A1_Y337_R336L] was inactive: 1.4.
Still for that read-out and setting: the value for QGIYGYHHYMQ [UFSP2_Y287] was inactive: 1.97; that for VVQGIYGYHHY [UFSP2_Y285] was inactive: 1.03.

The next assay concerns the target SHP2 N-SH2 domain T52S. The description is as above. The note with it: peptide library: pTyr-Var.
Consider ESMQSYDLDYP [UNC13B_Y243_D238E], for which the enrichment score was inactive: 0.685.
The same measure, in the same setting: the value for HAVYVYDICHV [TWNK_Y508] was inactive: 1.69; that for NTQRPYFKGGG [TYROBP_Y111_YF] was inactive: 0.729.
The same measure, in the same setting: the same measure for ETESPYQELQG [TYROBP_Y91]: inactive: 0.509; for GTQCSYLLSRK [UGT3A1_Y123]: inactive: 0.54.
On the same count and under the same terms, the value for HAVFIYDICHV [TWNK_Y508_V507I_YF] was inactive: 1.47.
Turning to LTTPTFGDLNH [TUBB_Y222_Y222F], the enrichment score was inactive: 1.37.
In the case of DSMQSYDLDYP [UNC13B_Y243], the enrichment score is inactive: 0.497.
Regarding NLGQQYNSPQE [UMPS_Y432], the enrichment score was inactive: 0.611.
Same read-out and setting: the value for TQRPYYKGGGG [TYROBP_Y112] was inactive: 1.56; that for TVLWQYTGTRP [UGT1A1_Y337_R336Q] was inactive: 0.831.
As for LFLASYCIGGG [UBD_Y161_C160S], the enrichment score is inactive: 0.977.
Take RGSQQYRALPV [TUBB8_Y281_T285P]: the enrichment score was inactive: 1.12.
Still for that read-out and setting: the value for NTDETYCIDNK [TUBB3_Y200_E205K] was inactive: 0.705; that for PQQLWYTHEKK [UBTF_Y207] was inactive: 1.37.
The same measure, in the same setting: the value for RDIHDYIKHLG [UNC13C_Y308] was inactive: 0.869; that for TVLWLYTGTRP [UGT1A1_Y337_R336L] was inactive: 1.74; that for QGIYGYHHYMQ [UFSP2_Y287] was inactive: 1.87.
Same read-out and setting: the same measure for VVQGIYGYHHY [UFSP2_Y285]: inactive: 1.33.

A further assay addresses SHP2 N-SH2 domain wild-type. Described as above. The note with it: peptide library: pTyr-Var.
Consider ESMQSYDLDYP [UNC13B_Y243_D238E], for which the enrichment score was inactive: 0.941.
With HAVYVYDICHV [TWNK_Y508], the enrichment score was inactive: 2.39.
Same read-out and setting: the value for NTQRPYFKGGG [TYROBP_Y111_YF] was inactive: 0.696; that for ETESPYQELQG [TYROBP_Y91] was inactive: 0.692; that for GTQCSYLLSRK [UGT3A1_Y123] was inactive: 0.521.
Still for that read-out and setting: the value for HAVFIYDICHV [TWNK_Y508_V507I_YF] was inactive: 1.81; that for LTTPTFGDLNH [TUBB_Y222_Y222F] was inactive: 0.913.
Take DSMQSYDLDYP [UNC13B_Y243]: the enrichment score is inactive: 0.41.
Still for that read-out and setting: the same measure for NLGQQYNSPQE [UMPS_Y432]: inactive: 0.611; for TQRPYYKGGGG [TYROBP_Y112]: inactive: 0.753.
As to TVLWQYTGTRP [UGT1A1_Y337_R336Q], the enrichment score was inactive: 0.742.
Same read-out and setting: the same measure for LFLASYCIGGG [UBD_Y161_C160S]: inactive: 1.29.
Same read-out and setting: the value for RGSQQYRALPV [TUBB8_Y281_T285P] was inactive: 1.02; that for NTDETYCIDNK [TUBB3_Y200_E205K] was inactive: 0.908; that for PQQLWYTHEKK [UBTF_Y207] was inactive: 1.19.
On the same count and under the same terms, the value for RDIHDYIKHLG [UNC13C_Y308] was inactive: 0.867; that for TVLWLYTGTRP [UGT1A1_Y337_R336L] was inactive: 1.73.
As to QGIYGYHHYMQ [UFSP2_Y287], the enrichment score was inactive: 2.11.
On the same count and under the same terms, the value for VVQGIYGYHHY [UFSP2_Y285] was inactive: 1.42.

Source of the values: the supplement of paper PMC10369915.
